From the supplement of paper PMC10126150
Values marked as one replicate rest on one cluster of the flow cell; about a third of the high ones do not repeat.

System: ATP
Test: switch fluorescence ratio, 500 uM ATP over buffer (Cy3 cluster intensity, sum of 5 cycles each) (fold (ratio)); higher = stronger signal-on switching upon ATP binding; sequences stand for … in TCGTCGGCAGCGTCAGATGTGTATAAGAGACAGTTTTTTTTTTTTTTTTTTTTTTTTT…TC
Conditions: aptamer strand: ATP DNA aptamer (quencher-CACCTGGGGGAGTATTGCGGAGGAAGG + anchor), 100 nM annealed; ATP concentration: 500 uM; one replicate
Method in brief: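 Imaging in selection buffer was followed by imaging after 15 min with 500 uM ATP at 22 °C, for Cy3-labelled switching-strand clusters annealed to 100 nM quencher-labelled ATP aptamer on a modified Illumina MiSeq flow-cell. Five of these buffer/ATP cycles ran, separated by NaOH stripping and re-annealing. The fluorescence ratio per cluster is summed target-cycle over summed buffer-cycle Cy3 intensity, averaged per switch-domain sequence; clusters outside 100-1000 RFU were removed.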
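Further: ATP exposure 15 min at 22 °C before imaging.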

Row | Sequence | switch fluorescence ratio
1 | AGCGCCCATA | 1.02
2 | CAGCATCGAG | 1.13
3 | CGTTGCGGGT | 0.999
4 | GCTAGTTCTG | 1.04
5 | GGGCGAGCAT | 1.04
6 | ACGATTTGGC | 1.01
7 | GGTGCTGTTG | 0.966
8 | TTAAGTCCTC | 1.01
9 | GACGGCCCTT | 1.03
10 | CCTTATCTAT | 1.01
11 | TGACGTATAA | 1.2
12 | GGATTCGCGT | 1.03
13 | ATTATACGTT | 1.02
14 | GAGTTTTCAA | 1.03
15 | GTGCTTTGTT | 1.01
16 | CGGCGCGTCC | 1.03
17 | TCCGTTATCT | 1.16
18 | ATTTTAGGCT | 1.02
19 | GCTTTAGTTT | 1.01
20 | CGGTCGTGAA | 0.952
21 | GCGCTACGTT | 1.04
22 | CGTATGTCAC | 0.986
23 | TCAACGTGGT | 1.03

Row | Sequence | switch fluorescence ratio
24 | GGATTGAGCT | 0.999
25 | TCAACCATTA | 1.02
26 | GTCCATCGGT | 0.997
27 | ATTGGCGGTC | 1.04
28 | TTGGCTGGCC | 0.993
29 | CCCTGGCTTA | 1.02
30 | GTACACGGGG | 0.953
31 | CAAAGTGGCC | 0.935
32 | CCATCCACAT | 1.46
33 | ACGTCCCGCT | 1.05
34 | GGCATGCTAT | 0.99
35 | AGCCTGAGTA | 0.941
36 | TCCGAGTAGA | 0.999
37 | TGCAATCCCG | 1.17
38 | CGGATACTAT | 1.05
39 | GCGTGACGAG | 1.04
40 | CAAAGAGCG | 0.991
41 | ACCGTGGCG | 1.05
42 | CTAGGGGCAA | 1.83
43 | CACATAGAAG | 1.01
44 | GAGATCAAAA | 1.05
45 | AAACTACGAT | 1.12
46 | CCTATATAA | 1.03

Row | Sequence | switch fluorescence ratio
47 | CTTTTGGTC | 0.965
48 | GTGCATGTAC | 1.23
49 | TATCCCCGAC | 1.13
50 | TGTAAGAGGG | 1
51 | TGATGGAAAT | 1
52 | AAAATTTCCT | 1.11
53 | TCACAGGGAC | 1.09
54 | CAGTGTTGTC | 1.03
55 | CTGGCGGCGC | 1.01
56 | AGGGGATCGA | 1
57 | GTACGATCCA | 1.06
58 | TCCCTTCTGC | 1.05
59 | AACTATACGG | 1.18
60 | GGGGCACGAA | 0.971
61 | TATGCGGGTC | 1.02
62 | CGAACGGCAA | 3.94
63 | ATGTTGTATG | 1
64 | TACAAGAGTG | 0.919
65 | AAGACGTGC | 1.03
66 | TGCGCTTTCC | 1.41
67 | AGTCGGCTGG | 0.953
68 | ACTCGGCTTA | 1.3
69 | TATTGTTAGA | 1.01

Row | Sequence | switch fluorescence ratio
70 | TTGACCCCGC | 1.11
71 | ATCTGGACTG | 0.932
72 | AGCATAAAGA | 1.03
73 | AAATAGGACT | 0.997
74 | TCCCCGAGGT | 1.02
75 | ACCAAGTTTG | 0.993
76 | TCGTAGAGCA | 1.04
77 | GTTTCTTGTC | 0.992
78 | TTTGCGCGCC | 0.917
79 | GTTAATCCGC | 1.89
80 | CGTTTGCATA | 1.2
81 | ACTCTGATA | 1.05
82 | TTGATAAAGA | 1.02
83 | CGATAGAGTT | 0.979
84 | CTGGATTGTG | 0.973
85 | GAAGGTAGTT | 1.01
86 | TCCTAAAATG | 1.03
87 | TTAGGATGC | 0.985
88 | GATACATCTG | 0.992
89 | AGGAATCACC | 0.982
90 | GTGGCTATAA | 1.01
91 | CTCTACGGGT | 0.981
92 | CATAAATCCT | 1.15

Row | Sequence | switch fluorescence ratio
93 | ATATACGGGC | 1.03
94 | AAAGTAGGGG | 0.999
95 | AAAATAAAGT | 0.988
96 | ATGATCCACC | 1.1
97 | GCACGTGGGT | 1.06
98 | GTAAGGGCAG | 0.989
99 | TTCGATCGAG | 0.987
100 | CAAGATCGAA | 0.984
101 | CGGTCGGTCA | 0.993
102 | GGATATCGTC | 1.01
103 | CCCTGCTTTC | 2.59
104 | TTCAGAAAAA | 0.927
105 | GGCTGGTACA | 0.995
106 | GAAGGTCTC | 0.977
107 | GCTAGTGATA | 1.03
108 | CCGCTAGTG | 1.64
109 | ACTTACGACA | 1.29
110 | CGGTTGCGTC | 1.02
111 | ATTAATACAG | 1.03
112 | GCGGGAACTC | 1.02
113 | TGCGCTATGC | 2.82
114 | CCTGGTAGTC | 1.08
115 | ATGTAGTCGT | 0.856

Row | Sequence | switch fluorescence ratio
116 | GGCGTACGTG | 1.04
117 | AGCGTTATTA | 1
118 | GAGGGTCGCA | 0.997
119 | ATTCTCCGG | 1.1
120 | GAGGGTAGGG | 0.92
121 | ACTCAACAGC | 1.26
122 | CGAGGGCCCG | 1.01
123 | TATTTGCGGC | 1.02
124 | ATCATCGTAA | 1.04
125 | TTACAGATAT | 1.01
126 | CGAACACTTG | 0.991
127 | CGCGTGTGAC | 1.06
128 | TGGCCCCATG | 1.02
129 | TAAAGACCTA | 1.05
130 | CTTGGACACT | 1.04
131 | ACCCAGCGGT | 1.03
132 | TGTATCCATT | 0.998
133 | TTGCGTTAGT | 1.04
134 | AGCTGCCGCC | 1.01
135 | TTTGTTAT | 1.01
136 | TAATTATAAG | 1.04
137 | TAACATAGTC | 0.961
138 | CGGTGCACGT | 0.956

Row | Sequence | switch fluorescence ratio
139 | GGGACGTGGA | 1.01
140 | ATCAAGTATA | 0.963
141 | AGTGGGGGA | 0.978
142 | GCTATAGAGT | 0.992
143 | CGTTGCGCGA | 1.07
144 | GATTTTGGAA | 0.975
145 | GGGGCGTTGT | 1.03
146 | GTTGGGAGT | 0.982
147 | TAAGGGGCC | 1
148 | CAACACCGCC | 1.36
149 | GCATTTAAAC | 1.04
150 | AGTCGCTTCA | 0.979
151 | GGGGTGCCGC | 1.03
152 | CTAAGTGAAA | 0.97
153 | ATTAATATTG | 0.978
154 | CTTATGGGGA | 1
155 | ACGGGCCGTC | 0.985
156 | GAAAGAACAA | 1.12
157 | AACATTGGGA | 1.06
